# From paper PMC6919601, “Identification of Plasmodium dipeptidyl aminopeptidase allosteric inhibitors by high throughput screening” (PLoS ONE, 2019)
# Out of some 110,000 compounds screened, about 230 (0.21%) showed an effect of 50% or more. This is one part of the list.
# Molecular target: DPAP1 (Plasmodium falciparum, UniProt Q8IIJ9)
# Assay: primary screen, percent inhibition; read by cleavage of a fluorogenic dipeptide substrate; higher = more effect of the substance
# Design: species or system P. falciparum D10 trophozoite lysates; single well
# 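Further: 30 min substrate incubation versus DMSO and 10 µM JCP410 controls.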
# Sequence of DPAP1 (Q8IIJ9 whole entry, looked up): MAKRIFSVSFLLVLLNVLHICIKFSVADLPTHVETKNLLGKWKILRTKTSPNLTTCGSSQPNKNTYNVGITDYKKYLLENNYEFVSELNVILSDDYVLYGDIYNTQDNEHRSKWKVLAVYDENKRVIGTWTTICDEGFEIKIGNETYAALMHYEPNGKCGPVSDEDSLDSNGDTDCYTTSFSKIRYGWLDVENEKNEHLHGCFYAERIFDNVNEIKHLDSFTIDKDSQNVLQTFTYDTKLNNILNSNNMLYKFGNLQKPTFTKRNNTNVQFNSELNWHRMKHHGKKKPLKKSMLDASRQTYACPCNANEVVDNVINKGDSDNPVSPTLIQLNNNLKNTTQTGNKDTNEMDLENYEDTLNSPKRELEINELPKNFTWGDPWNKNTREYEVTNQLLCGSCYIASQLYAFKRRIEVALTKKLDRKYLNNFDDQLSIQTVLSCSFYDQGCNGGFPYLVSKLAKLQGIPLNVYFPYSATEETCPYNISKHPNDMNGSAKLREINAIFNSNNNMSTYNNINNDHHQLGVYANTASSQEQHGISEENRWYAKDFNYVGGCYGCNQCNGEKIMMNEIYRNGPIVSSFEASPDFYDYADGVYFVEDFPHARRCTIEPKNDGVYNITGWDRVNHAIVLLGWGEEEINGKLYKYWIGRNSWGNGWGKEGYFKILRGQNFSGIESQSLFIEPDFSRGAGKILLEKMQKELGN
row,SMILES,% Inhibition @ 10 uM
1,CCOC(=O)NC1(C(F)(F)F)NC(=O)N(Cc2cccnc2)C1=O (stereo not shown),0.221%
2,C=CCC(NCc1ccccc1)c1ccc(C)o1 (stereo not shown),-7.87%
3,COc1ccc(OC)c(S(=O)(=O)N2CCC3(CC2)N=C(SC)C(c2ccccc2)=N3)c1,-2.5%
4,Cc1ccc(CNC(=O)Cn2nc(Cc3cccnc3)c3ccccc3c2=O)cc1,-1.21%
5,CC(C)(C)NS(=O)(=O)c1ccc(NC(=O)c2ccc(F)cc2)cc1,-1.17%
6,COc1ccc(CNC(=O)CSc2nnc(C)c3c(C)n(-c4ccc(Cl)cc4)nc23)c(OC)c1,4.56%
7,CCc1ccc(CNC(=O)C(CC)n2nc(C)c3sc4ccccc4c3c2=O)cc1 (stereo not shown),90.8%
8,COc1ccc(CNC2CCCCC2OC)cc1 (stereo not shown),4.61%
9,CCOC(=O)c1[nH]c2ccccc2c1NC(=O)c1ccc(Br)o1,-0.58%
10,CCO/C(O)=C1\C(C)=NC2=C(C(=O)CC(C)(C)C2)C1c1ccc(Cl)c(Cl)c1 (stereo not shown),2.45%
11,Cc1ccc(N2C(=O)CC(NCCc3cccc(Cl)c3)C2=O)cc1 (stereo not shown),-4.16%
12,COc1ccc(NC(=O)c2ccc(CN3CCc4ccccc4C3)cc2)c(OC)c1,-0.171%
13,COC(=O)C1=C(C)N(Cc2ccc(OC)cc2)C(=O)/C1=C\c1cc(C)n(-c2ccccc2F)c1C,-3.63%
14,CC(=O)Nc1ccc(S(=O)(=O)Nc2ccccc2C(=O)NC(C)c2ccccc2)cc1 (stereo not shown),0.749%
15,N#CC1=C(N)Oc2[nH]nc(-c3ccccc3)c2C1c1ccc(O)c(O)c1 (stereo not shown),-0.996%
16,CC1CCN(S(=O)(=O)c2ccc3c(ccn3CCC(=O)N3CCC4(CC3)OCCO4)c2)CC1,7.98%
17,Cc1ccc(-n2nc(C)c3c2OC(N)=C(C#N)C3c2ccsc2)cc1 (stereo not shown),-2.68%
18,CCc1cc(C(=O)Cc2nc3ccccc3[nH]2)c(O)cc1O,1.21%
19,COc1ccc2[nH]c3c(=O)n(CCC(=O)NCCc4ccc(Cl)cc4)c(=S)[nH]c3c2c1,-5.76%
20,COc1ccc(C2(O)CSC3=C(C#N)C(c4ccc(C(F)(F)F)cc4)CC(=O)N32)cc1OC (stereo not shown),-1.74%
21,O=S(=O)(c1ccc(-c2csc(-c3cccnc3)n2)cc1)N1CCCC1,-0.661%
22,CC(=O)c1ccc(NC(=O)CN2CCCCC2)cc1,-7.42%
23,CC(C)C[C@H](NC(=O)C1CCNCC1)C(=O)NC1CCCN/C1=C\[N+](=O)[O-] (stereo partly shown),2.22%
24,NC(=O)c1ccccc1NC(=O)c1sc2ccccc2c1Cl,-3.35%
25,COc1ccccc1C1CC(=O)N=C(NC(=O)c2ccccc2)N1 (stereo not shown),-2.76%
